This passage reports activation results from PubChem BioAssay AID1346428 (National Center for Advancing Translational Sciences (NCATS), 2018).

Among all 48,000 compounds or so, about 1,200 (2.5%) were called active. Not shown: some 2% with an inconclusive outcome.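 How the source made its calls: active means activation of at least 60% and not above a set upper limit (about 1 call in 100 departs from these limits); inconclusive means activation of 40% to 60%, or above that upper limit; inactive means activation under 40%.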 The list shows a part of the results.

The test deals with Probable G-protein coupled receptor 32 (Homo sapiens) (UniProt O75388). Description: qHTS for Agonists of Human Resolvin D1 Receptor DRV1. Further: 0% is about no effect. The settings on record: CHO-K1 GPR32 beta-arrestin PathHunter luminescence, 90 min; at 76.9 µM; stronger effect = higher value; zero percent set by DMSO-only wells. An outline of the steps: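 Agonism was scored as beta-arrestin recruitment to ProLink-fused GPR32 in stably transfected CHO-K1 cells, giving a chemiluminescent beta-Gal signal; compounds were incubated 90 min at 37 °C.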
UniProt O75388, sequence (O75388 whole entry, looked up, the tested form may be a part): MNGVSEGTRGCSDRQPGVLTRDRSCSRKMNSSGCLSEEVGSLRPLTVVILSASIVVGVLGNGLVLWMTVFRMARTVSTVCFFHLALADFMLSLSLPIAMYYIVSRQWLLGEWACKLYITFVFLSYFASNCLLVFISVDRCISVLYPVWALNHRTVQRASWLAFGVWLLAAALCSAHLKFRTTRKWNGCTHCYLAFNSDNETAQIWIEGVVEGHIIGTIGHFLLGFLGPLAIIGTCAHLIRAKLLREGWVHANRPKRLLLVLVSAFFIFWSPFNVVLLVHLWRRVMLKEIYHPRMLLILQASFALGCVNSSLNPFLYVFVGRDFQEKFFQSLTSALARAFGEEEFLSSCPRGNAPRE
Background: In qHTS, concentration-response curves come from the screen itself.
As to `COC(=O)c1ccccc1NC(=O)CSc1nc(-c2ccccc2)cc(C(F)(F)F)n1`, the activation is inactive: -7.04%. With `Cc1c(C(N)=O)cc([N+](=O)[O-])cc1[N+](=O)[O-]` the figure was inactive: -4.79%; with `Cc1ccc(NC(=O)CN2CCCN(Cc3ccccc3Cl)S2(=O)=O)c(C)c1`, inactive: -7.79%; with `COc1ccc(CNC(=O)Cn2ccc3cc(S(=O)(=O)N4CCCCC4)ccc32)c(OC)c1`, inactive: -9.84%. Turning to `COc1ccccc1CNC(=O)CCc1c(C)nc2cc(-c3ccccc3OC)nn2c1C`, the activation is inactive: -0.519%. With `Cc1cc(Cl)ccc1NC(=O)CN1C(=O)CSc2ccc(S(=O)(=O)N(C)C)cc21` the figure was inactive: 9.46%; with `CCOCCc1nn2c(=O)cc(COC(=O)COc3ccccc3Cl)nc2s1`, inactive: -12.7%; with `COC(=O)c1sc2cccc(F)c2c1S(=O)(=O)N1CCN(c2ccccc2OC)CC1`, inactive: -37.2%.

In the case of `COc1ccc(OC)c(NC(=O)CSc2nc(-c3ccccc3C)nc3cc(=O)[nH]n23)c1`, the activation is inactive: 17.4%. Consider `CC(NC(=O)c1nn(C)c2c1CSc1ccccc1-2)c1ccccc1` (stereo not drawn), for which the activation is inactive: -14.8%.

Take `CC1CCN(C(=O)CN2CCSc3ccccc32)CC1`: the activation was inactive: -18.2%. `O=C(Nc1ccc(SC(F)F)cc1)c1cc(-c2cccs2)on1`: the activation was inactive: 4.28%. As for `O=C(NCCc1ccccc1)c1ccc2c(c1)CCN2S(=O)(=O)c1ccc(Br)cc1`, the figure is inactive: -9.68%.

For the compound `CC(=O)c1cccc(NC(=O)CCCN2C(=O)COc3ccc(C)cc32)c1`, the activation is inactive: -15.8%.

Take `CCOc1ccc(C(=O)Nc2nnc(S(=O)(=O)N(CC)c3ccccc3C)s2)cc1`: the activation is inactive: 0.388%.

With `Cc1ccc(-c2cc(NC(=O)C(C)Oc3ccc(C)c(C)c3)on2)cc1` (stereo not drawn), the activation was inactive: -15.2%. Regarding `O=C(Cc1ccccc1)Nc1c(C(=O)N2CCN(c3ccc(F)cc3)CC2)oc2ccccc12`, the activation is inactive: -5.09%. For `Cc1ccc(C)c(NC(=O)CN2C(=O)CSc3nc(C)cc(C)c32)c1`, the activation is inactive: -10.5%.

For `COc1ccc(CNc2ccc3cc(S(=O)(=O)N4CCCCC4)ccc3n2)cc1`, the activation was inactive: 5.44%. As to `CCC(=O)N1CCCc2cc(S(=O)(=O)N3CCC(C(=O)Nc4ccc(F)c(F)c4)CC3)ccc21`, the activation is inactive: 7.19%. As to `CCNc1nc2c(c(=O)[nH]c(=O)n2C)n1CC(O)COc1ccc(Cl)cc1Cl` (stereo not drawn), the activation is inactive: -7.57%. Take `COc1ccc(N2CC(c3nc(-c4cc(OC)c(OC)c(OC)c4)no3)CC2=O)cc1Cl` (stereo not drawn): the activation is inactive: -11.3%. As for `COc1cc(OC)cc(C(=O)N2CCC(c3ccncc3)CC2)c1`, the figure is inactive: 6.52%.
